According to the supplement of paper PMC10126150:
Sequences with one replicate were seen in a single cluster, so their values are uncertain.

System: ATP
Assay: switch fluorescence ratio, 500 uM ATP over buffer (Cy3 cluster intensity, sum of 5 cycles each) (fold (ratio)); higher = stronger signal-on switching upon ATP binding; sequences stand for … in TCGTCGGCAGCGTCAGATGTGTATAAGAGACAGTTTTTTTTTTTTTTTTTTTTTTTTT…TC
Settings: aptamer strand: ATP DNA aptamer (quencher-CACCTGGGGGAGTATTGCGGAGGAAGG + anchor), 100 nM annealed; ATP concentration: 500 uM; one replicate
Procedure, shortened: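 Imaging in selection buffer was followed by imaging after 15 min with 500 uM ATP at 22 °C, for Cy3-labelled switching-strand clusters annealed to 100 nM quencher-labelled ATP aptamer on a modified Illumina MiSeq flow-cell. Five of these buffer/ATP cycles ran, separated by NaOH stripping and re-annealing. The fluorescence ratio per cluster is summed target-cycle over summed buffer-cycle Cy3 intensity, averaged per switch-domain sequence; clusters outside 100-1000 RFU were removed.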
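Note: ATP exposure 15 min at 22 °C before imaging.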

Sequence	switch fluorescence ratio
AACGCGTAGC	1.02
ATCACGTACG	1.78
ATCAGGGG	1.2
CAATGTACCC	1.13
AGGATATCCG	1.02
ACGTTGATAA	1.03
CAAAGTTAGC	0.998
CCGTGAGAAC	1.76
AGGAGGAACT	1.02
GCCCGGGTCT	0.941
ACCTGTTCGG	1.04
TGCGATAA	2.2
ACTGCGTTCC	1.43
TACTTCACCT	1.27
TTGTGTGTCG	1.02
AACGGAGGAT	1.15
TGAAAGTGTA	1.08
TGTACCTGGT	1.01
TCACCAAATC	1.03
AGTACCGATC	1.12
TCTGCGAAAG	0.993
GTTTTCAGAC	1.02
TTACGTGGGG	1.03
ATTGCGATG	1.04
GCTACCCTTT	1.09

Sequence	switch fluorescence ratio
AATAGCTCAA	1.01
GCAGGCCCCG	0.998
CGATTTTTCT	1.07
GTCATAAGTT	0.973
AGGCAGTTAA	0.972
GCTGGGCTTT	0.957
TTACGGTAGC	1.03
TGTTCCGGTA	1.08
GCAAAATCAG	1.02
GTACTTTTGG	0.969
GTTGCACGCT	0.999
CGTGCGTCA	0.971
CTAGAGTTGG	1.05
CATATATAGT	1.05
TTCATCTTGA	1.03
TTTAGAGGGC	1.02
GCTTAAGGGT	0.946
ATTTCAGCGT	1.01
CTCGTAATAG	4.53
CGGGACTCTG	1.01
CACAGGCTTG	0.979
ACGCATGTTG	0.991
ATATCTAGAT	0.976
GTAGTTTCTG	1.01
ATTTCAGACA	0.946

Sequence	switch fluorescence ratio
CCGGGGGCAT	2.73
TTAAGGCAGC	1.01
GTCTGAGGT	0.962
GTGATCAGCG	0.999
ATTCACCTGA	1.07
TTATGACGC	1.06
CTATGACGCC	0.924
GATAGGGTAG	0.978
AGCGGTATAT	1.01
TTGGTTTCGG	1.01
GTAGTGCCGG	1.12
TTGTACATAA	0.961
TTATGTAGTG	0.946
CGGGATAAGA	1.01
GGGTGTTGGC	1
CTAGAATTGC	1.04
AGGCTCTGGG	1.03
GGTTAGATGC	1.07
TATCAACAGA	1.07
TTTTGCCCAG	1.05
TTAGAAAGG	1.02
GATGAGGGCT	1.05
TACCAGGCCT	0.997
TGGAGGGTTA	0.99
CGCAGCGAGG	1.38

Sequence	switch fluorescence ratio
AACGCACTCG	1.47
ATCGTTGCCC	1
GGTGCGCATT	1.04
GTTCTCCGTC	1.16
TTATTTAGTG	0.939
TTGTTCACAA	1.03
AGTTGCAGA	0.967
AGATGGCTAT	1
CTGTGGAAGT	0.986
GTTGTCAGCC	1.01
GGATTATGAC	0.973
TTGATGCCAA	1.11
AATGTCGCGG	0.998
AACCTTGCAC	2.14
TACAGCTTAG	1.04
TAACTCCCG	1.15
GATTAAATCA	1.02
GCAGGTCCGT	0.992
AGGGACACTT	0.98
GCAAGCATTT	1.03
CGGTAACCTG	1.01
GGGGCGCTTT	1
TCCTATTTCA	0.968
GCGTGAAATG	0.999
CGAAAGTGGA	0.984

Sequence	switch fluorescence ratio
CAGTCGTTGG	1.05
TCAGCTTCGT	1.03
TCGACCGACT	1.05
TTTAACGGAG	0.988
AGTTTGCTAA	1.01
AGGTGTCTGC	1
GTTGGGAAAC	1.04
TTGCCCAGC	0.935
TACTCTTCA	1.08
TGGATGTGAG	1.04
AATTATCTCT	0.99
AACTCTGTAC	1.16
TTGGTTAACT	0.967
AATGGATC	0.98
CAATAGACAG	0.979
GCCGCTGCTT	1.04
GGTTATGCTT	0.97
TATGACTAAA	1.06
ATTCGTGGAA	1.01
GCGTGTTTTC	0.973
ACTGGTAGTC	0.988
AATACGACCA	2.02
TAGACCAAGC	1.04
TTCTTTGAC	0.993
AAGACGAAGG	0.995

Sequence	switch fluorescence ratio
GTATTTGGCT	1.02
GGGGCTGACG	0.955
GCCGATTCTC	0.96
CTTTCGGCTC	1.09
TTAAGATGAT	1.2
ATGACGATAA	1.03
ATTCAATATA	1.02
GTTATTCGAC	0.99
GACGCGACGA	1.46
AGAAGCACCT	1.06
CGATTGTGAG	1.03
TCAAAACGAG	1.03
TGTTGGACTT	1.08
GGCCAATGTT	0.998
ACTACTCGGT	1.02
CTGCTCGGAG	1.05
GGCATAGCTG	0.995
ATCGGTAGCA	1.03
TTGCCACCAC	1.06
GAACATGCGC	1.08
TCGCGTATCG	0.977
AGCACCGGAG	1.1
AACCCATTTA	1
AGGCTGTTA	0.974
TGAATAAAAA	1.09

Sequence	switch fluorescence ratio
GCCATTTCTG	1.01
CGCATATTCA	1.45
CCTCTGGAAC	4.18
ATCAGGCTAC	1.07
GATATCTTTA	1.01
TACTTCGGTT	1.02
TATAGCCGAG	1.03
TTTCTATAGT	1.01
TACTTAGGAC	1.04
GTGGTCGCTA	0.997
GAAAAAATTG	1.32
CACGGCTATT	0.974
GTAATTATTA	0.971
TAGTCGTAAA	1.04
CGTTTGTAGG	0.973
CGTTAATGAG	0.989
ATCAGAGAAG	0.995
ATTATCTATC	1.01
GGCATCCGTG	1.02
TGCTGACGTG	1
CCGATAATCG	1.12
GCCTTGTCGT	0.953
CAGCTTTGCA	0.956
AAGAATTATG	1.05
ACCGCCTATG	1.15

Sequence	switch fluorescence ratio
CTGGAGTGAG	1.04
AAGTAGCGGG	1.03
AGGTGCACTG	1.01
GTTTGTGCTA	0.971
TCACTCAAGG	0.999
AGGGAAGACG	0.902
TAAGGTAAGA	0.938
ATCCGCCACA	1.72
CCGCGGGGGA	1.09
CGTCATTCAC	1.23
GCTTTTCTCT	1.02
TCAATTTCTC	1.02
TTGCACTTTT	1.01
GGAGTTAATG	0.987
ATGCTGGTAC	1.05
AAGCAAAACG	1.06
TCCGCTTCCA	1.05
AACGTCATCG	1.02
CTTGCCCTGA	1.01
CTGGCACATC	1.2
AAGGTCCCGT	1.03
ATTCGGGCTG	1.05
CGCGCCTTTC	1.27
AAAGGCGGAG	0.968
TTTGAGGTT	0.975
